# Results reported in PubChem BioAssay AID588591 (National Center for Advancing Translational Sciences (NCATS), 2011).
# Screen size: about 390,000 compounds; about 4,700 (1.2%) were called active. This list was built around the results that the source calls inconclusive (neither active nor inactive); the mix of calls is not that of the screen. Calls come from the whole dose curve; as a rule, active = well fitted inhibition curve with a large enough effect; inconclusive = small, poorly fitted or top-dose-only effect, or another doubt; inactive = no such curve, though single readings can be large or run the other way. Where the call is inconclusive, the potency comes from a doubtful curve fit.
# Biological target: DNA polymerase eta (Homo sapiens) (UniProt Q9Y253)
# Chain of UniProt Q9Y253 (Q9Y253 whole entry, looked up): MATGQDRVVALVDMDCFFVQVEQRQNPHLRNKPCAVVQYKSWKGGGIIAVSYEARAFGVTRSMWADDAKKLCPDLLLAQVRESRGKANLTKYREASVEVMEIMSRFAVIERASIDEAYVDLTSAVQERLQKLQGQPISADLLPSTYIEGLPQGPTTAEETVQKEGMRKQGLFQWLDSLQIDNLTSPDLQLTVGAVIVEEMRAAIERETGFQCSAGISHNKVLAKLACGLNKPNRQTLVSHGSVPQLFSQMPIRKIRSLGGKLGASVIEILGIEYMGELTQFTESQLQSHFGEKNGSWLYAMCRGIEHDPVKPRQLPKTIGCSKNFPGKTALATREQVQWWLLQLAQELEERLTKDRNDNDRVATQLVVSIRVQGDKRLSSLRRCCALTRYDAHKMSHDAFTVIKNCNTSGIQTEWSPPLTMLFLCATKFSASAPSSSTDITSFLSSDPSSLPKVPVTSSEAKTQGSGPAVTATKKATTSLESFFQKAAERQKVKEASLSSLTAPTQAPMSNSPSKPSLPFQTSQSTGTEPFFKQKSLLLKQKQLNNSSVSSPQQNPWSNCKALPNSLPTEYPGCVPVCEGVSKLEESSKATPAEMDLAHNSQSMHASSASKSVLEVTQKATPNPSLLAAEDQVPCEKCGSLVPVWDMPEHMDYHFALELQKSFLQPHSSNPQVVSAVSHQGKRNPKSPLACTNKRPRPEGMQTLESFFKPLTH
# Experiment: qHTS for Inhibitors of Polymerase Eta
# Settings: recombinant Pol eta, fluorescent DNA replication assay; series mostly up to 114 µM
# Method in brief: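 Pol eta (10 nM) was preincubated with compounds for 15 min at room temperature, after which fluorescent replication substrate (50 nM final) was added to start the reaction. Fluorescence was read kinetically at 0 and 10 min.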
# Potency is the fitted concentration of half-maximal effect; tags give direction and shape of the fitted curve.
row,Compound,Potency
1,O=C(COC(=O)c1ccccc1O)Nc1cc([N+](=O)[O-])ccc1Cl,"inconclusive: 89.1 µM [inhibitor, partial curve, poor fit]"
2,Cc1nc(NC(=O)C(Cl)Cl)sc1C(=O)N(C)C,active: 10 µM
3,COc1ccc(N=C2NC(=O)/C(=C\C=C\c3ccco3)S2)cc1,active: 39.8 µM
4,O=C(NCC1CCCO1)C(Cc1ccccc1)N1C(=O)C2C3C=CC(C4CC34)C2C1=O (stereo not given),"inconclusive: 89.1 µM [inhibitor, partial curve, poor fit]"
5,Cc1ccccc1NC(=S)N(Cc1ccccn1)Cc1ccccc1Cl,"inconclusive: 100 µM [inhibitor, partial curve, poor fit]"
6,Cc1ccc2nc3c(cc(C#N)c(=O)n3-c3nccs3)c(=O)n2c1,"inconclusive: 14.1 µM [inhibitor, partial curve, poor fit]"
7,Fc1ccc2nc3[nH]c4ccccc4c3nc2c1,"inconclusive: 35.5 µM [inhibitor, partial curve]"
8,NC(=O)CC[C@@H]1NC(=O)[C@H](Cc2ccc(O)cc2)NC(=O)c2cc([N+](=O)[O-])cc(F)c2OCC[C@@H](C(N)=O)NC1=O,"inconclusive: 89.1 µM [inhibitor, single point]"
9,Nc1cc2[nH]c(=O)c3ccccc3c2cc1[N+](=O)[O-],"inconclusive: 11.2 µM [inhibitor, partial curve]"
10,CN1C(=O)NC(c2ccccc2)C2=C1CN(c1ccc3ccccc3c1)C2=O (stereo not given),active: 11.2 µM
11,O=C(O)CCCCCCCCCC(=O)c1cccs1,"inconclusive: 22.4 µM [inhibitor, single point]"
12,Cc1ccc(NC(=O)C(C)OC(=O)/C=C/c2ccccc2)cc1S(=O)(=O)N1CCOCC1 (stereo not given),"inconclusive: 56.2 µM [inhibitor, partial curve]"
13,Cc1cc(C)c(NC(=O)Cn2c(=O)n(-c3ccc(F)cc3)c(=O)c3c(C)c(C(=O)N(C)C)sc32)c(C)c1,inactive
14,Cc1cc(C)n2nc(C(=O)Nc3ccc4c(c3)OCO4)nc2n1,"inconclusive: 28.2 µM [inhibitor, single point]"
15,Cc1nc2nc(SCC(=O)N(Cc3ccccc3)C(C)C)nn2c(C)c1Cc1ccccc1Cl,inactive
16,CCCc1cc(=O)[nH]c(SCc2nc3ccc([N+](=O)[O-])cc3[nH]2)n1,"inconclusive: 0.398 µM [inhibitor, partial curve, poor fit]"
17,CCn1cc(-c2cc(C(F)(F)F)n3nc(C(=O)O)cc3n2)c(C)n1,"inconclusive: 22.4 µM [inhibitor, partial curve]"
18,O=C(Nc1ccc(N2CCOCC2)c(Cl)c1)c1cccnc1Cl,"inconclusive: 28.2 µM [inhibitor, partial curve, poor fit]"
19,Cn1nc2sc3ccccc3n2c(=O)c1=O,inactive
20,Cc1ccc(NC(=O)N/C=C/c2ccco2)cc1,active: 50.1 µM
21,COc1ccc(/C=C/C(=O)NCC(=O)N/N=C/c2cccs2)cc1,"inconclusive: 39.8 µM [inhibitor, partial curve, poor fit]"
22,O=S(=O)(Nc1cc(F)ccc1F)c1cccc2nonc12,"inconclusive: 31.6 µM [inhibitor, full curve]"

row,Compound,Potency
1,Cc1cccc(Cn2c(=O)n(CC3CCC(C(=O)N4CCC(C)CC4)CC3)c(=O)c3sccc32)c1 (stereo not given),inactive
2,Cc1ccn2c(=O)nc(SCC(=O)N3CCCc4ccccc43)nc2c1,"inconclusive: 15.8 µM [inhibitor, full curve, poor fit]"
3,COc1ccccc1N1CCN(C(=O)/C=C/c2ccco2)CC1,"inconclusive: 31.6 µM [inhibitor, single point]"
4,COc1ccc(C2C(C#N)=C(N)Oc3c2c(C)nn3-c2ccccc2)cc1Cn1nc(C)c([N+](=O)[O-])c1C (stereo not given),inactive
5,O=[N+]([O-])c1cccc(-c2nc3ccc([N+](=O)[O-])cc3[nH]2)c1,"inconclusive: 39.8 µM [inhibitor, partial curve]"
6,COc1ccccc1/C=C\C=N\n1c(-c2ccc(Cl)cc2)n[nH]c1=S,"inconclusive: 35.5 µM [inhibitor, partial curve, poor fit]"
7,COc1ccc(OC)c(NC(=O)Cc2cccs2)c1,"inconclusive: 56.2 µM [inhibitor, partial curve, poor fit]"
8,O=C(/C(=N/N=C/c1ccc(O)c(O)c1O)c1ccccc1)c1ccccc1,"inconclusive: 31.6 µM [inhibitor, single point]"
9,COCCNC(=O)/C(C#N)=C/c1ccc(O)c([N+](=O)[O-])c1,inactive
10,O=C1NN=C(c2ccc(Cl)cc2)CC1c1cccc(Br)c1 (stereo not given),"inconclusive: 89.1 µM [inhibitor, partial curve, poor fit]"
11,CCOC(=O)c1ccc(NC(=O)CC2C(=O)N(c3ccc(F)cc3)C(=O)N2Cc2ccc(C)cc2)cc1 (stereo not given),"inconclusive: 39.8 µM [inhibitor, partial curve, poor fit]"
12,O=C(Nc1nccs1)c1ccc(Br)o1,inactive
13,CN1CCN(C(=S)NC(=O)c2ccc(Cl)cc2)CC1,"inconclusive: 56.2 µM [inhibitor, partial curve, poor fit]"
14,COC(=O)c1sc2ncn(N)c(=O)c2c1C,"inconclusive: 100 µM [inhibitor, partial curve, poor fit]"
15,COC(=O)NC(=S)Nc1ccc(Oc2ccc(Cl)cc2Cl)c(Cl)c1,"inconclusive: 39.8 µM [inhibitor, partial curve, poor fit]"
16,CN(C(=O)c1cccc(NC(=O)Cc2ccc(NC(=O)C3CCCN(C(=O)C4CCC4)C3)cc2)c1)C1CCC1 (stereo not given),inactive
17,CCN1/C(=C/c2ccc3ccc(C)cc3[n+]2CC)Sc2ccccc21,"inconclusive: 28.2 µM [inhibitor, partial curve]"
18,CC1CN(CCCSc2ccc(Cl)cc2)CC(C)O1 (stereo not given),"inconclusive: 79.4 µM [inhibitor, partial curve, poor fit]"
19,COc1ccccc1NS(=O)(=O)c1cccc(NC(=O)c2ccc3ccccc3n2)c1,"inconclusive: 79.4 µM [inhibitor, partial curve, poor fit]"
20,O=C(CSc1nc2[nH]c(=O)cc(O)c2s1)Nc1nccs1,"inconclusive: 14.1 µM [inhibitor, partial curve, poor fit]"
21,Cc1ccc(C(=O)NC(=S)Nc2ccc(S(=O)(=O)N(C)c3ccccc3)cc2)cc1,"inconclusive: 11.2 µM [inhibitor, partial curve, poor fit]"
22,COc1ccc(C(=O)COC(=O)/C=C/c2ccccc2)c(OC)c1,active: 39.8 µM

row,Compound,Potency
1,O=C(c1cccs1)N1CCN(C/C=C/c2ccccc2)CC1,"inconclusive: 5.01 µM [inhibitor, full curve, poor fit]"
2,CCCNC(=O)COC(=O)/C=C/c1ccco1,"inconclusive: 20 µM [inhibitor, partial curve, poor fit]"
3,CC(=O)C1=C(O)C(=CC=Cc2ccccc2)OC1=O,"inconclusive: 50.1 µM [inhibitor, partial curve]"
4,Cc1ccc2nc(/C(C#N)=C/c3ccc(-c4cccc(Cl)c4)o3)[nH]c2c1,active: 89.1 µM
5,Cc1c(C(=O)NC(=S)Nc2ccc(NC(=O)c3cccs3)cc2)oc2ccccc12,"inconclusive: 89.1 µM [inhibitor, partial curve, poor fit]"
6,CCOc1ccccc1NC(=O)COC(=O)c1c[nH]c2ccccc12,"inconclusive: 28.2 µM [inhibitor, single point]"
7,CCOC(=O)Cc1[nH]nc2c1C(C1C=CCCC1)C(C#N)=C(N)O2 (stereo not given),"inconclusive: 28.2 µM [inhibitor, partial curve, poor fit]"
8,O=C1CCCC/C1=C/Nc1ccc(S(=O)(=O)Nc2ncccn2)cc1,"inconclusive: 28.2 µM [inhibitor, single point]"
9,COCCCNC(=O)c1c(N)n(/N=C/c2cccnc2)c2nc3ccccc3nc12,"inconclusive: 7.08 µM [inhibitor, partial curve, poor fit]"
10,COc1ccc(NC(=O)CN(C)C(=O)C(CCSC)NC(=O)c2ccccc2)cc1 (stereo not given),"inconclusive: 89.1 µM [inhibitor, partial curve, poor fit]"
11,Nc1cnccc1C(=O)O,"inconclusive: 44.7 µM [inhibitor, partial curve]"
12,COc1cccc(CSc2nc3n(n2)C(c2ccccc2C)C(C(=O)Nc2ccccc2OC)=C(C)N3)c1 (stereo not given),inactive
13,CN(c1ccc(Cl)cc1)c1cc(=O)n(C)c2ccccc12,inactive
14,Cc1nn2c(-c3cccc(NC(=O)CSc4nc5ccccc5o4)c3)nnc2c2ccccc12,"inconclusive: 8.91 µM [inhibitor, partial curve]"
15,CC(CC(=O)OCC(=O)Nc1ccc2[nH]c(=O)[nH]c2c1)c1ccccc1 (stereo not given),"inconclusive: 22.4 µM [inhibitor, partial curve, poor fit]"
16,N#CCSc1nnc(SCC#N)s1,active: 20 µM
17,O=S(=O)(Nc1nc2n(n1)C(c1ccccc1)C=C(c1ccc(Cl)cc1)N2)c1ccccc1 (stereo not given),active: 89.1 µM
18,COc1ccc(-c2noc(-c3ccccc3NC(=O)c3cc(OC)c(OC)c(OC)c3)n2)cc1,inactive
19,C=CCN1C(=O)/C(=C\C=C2\N(C)c3ccccc3C2(C)C)SC1=S,"inconclusive: 2.82 µM [inhibitor, partial curve, poor fit]"
20,CCOc1ccccc1NC(=O)C1CCN(C(=O)C2CC(=O)N(c3ccc(C)cc3)C2)CC1 (stereo not given),inactive
21,CCc1cc2cc3c(cc2nc1SCC(=O)Nc1c[nH]c(=O)[nH]c1=O)OCO3,inactive
